Inconclusive results, whose numbers are uncertain, are shown with a selection of clear calls. Potencies beside an inconclusive call are fits to weak or partial responses and may not hold up. Activity calls are given as the source filed them. Calls come from the whole dose curve; as a rule, active = well fitted cell-killing curve with a large enough effect; inconclusive = small, poorly fitted or top-dose-only effect, or effect the other way; inactive = no such curve, though single readings can be large or run the other way.
assay: Viability qHTS for spleen associated tyrosine kinase inhibitor (SYKi) naive MV4-11 cells (AID 1963823); conditions: MV4-11 AML viability, CellTiter-Glo luminescence, 72 h; series mostly up to 45 µM; note: nearly all actives have a fitted effect of over 40% in size
Summary of the method: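 Compounds were dispensed acoustically onto plates, MV4-11 cells (SYKi-naive) added at 500 per well, and plates incubated 72 hr at 37 C. CellTiter-Glo was added and luminescence measured after 10 min.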
Potency is the fitted concentration of half-maximal effect; tags give direction and shape of the fitted curve.

Row | Compound | Potency
1 | CC(=O)OC1C(O)C2C(C)C3=CC(=O)OC3(O)CC2C2(C)CCCC(C)(CO)C12 (stereo unspecified) | inconclusive: 0.0282 µM [cytotoxic, full curve, poor fit]
2 | C/C(=N\N=C(N)N)c1cc(NC(=O)CCCCCCCCC(=O)Nc2cc(/C(C)=N/N=C(N)N)cc(/C(C)=N/N=C(N)N)c2)cc(/C(C)=N/N=C(N)N)c1 | active: 18.4 µM
3 | CNC12CC3C[C@@](C)(C1)C[C@](C)(C3)C2 | inactive
4 | CCCC(=O)C1CCN(c2ncnc3c2CN(C(=O)c2ccc(-c4ccccc4)cc2)CC3)CC1 | active: 16.4 µM
5 | O=S1(=O)OC(c2ccc(O)cc2)(c2ccc(O)cc2)c2ccccc21 | inactive
6 | C=C1C(=O)OC2/C=C(\C)CC/C=C(\C)CC(OC(C)=O)C12 (stereo unspecified) | active: 2.59 µM
7 | CCOC(=O)N1CCC(CN(Cc2ccc(Cl)cc2)Cc2ccc([N+](=O)[O-])s2)C1 (stereo unspecified) | active: 10.3 µM
8 | CCC[C@@H]1O[C@@H]2C[C@H]3[C@@H]4CCC5=CC(=O)C=C[C@]5(C)[C@H]4[C@@H](O)C[C@]3(C)[C@]2(C(=O)CO)O1 | inconclusive: 25.9 µM [cytotoxic, partial curve, poor fit]
9 | FC(F)(F)c1nnc2c(Sc3ccccc3)nc3ccc(Cl)cc3n12 | active: 1.46 µM
10 | O=C(Nc1ccc(S(=O)(=O)Nc2nccs2)cc1)c1cc(-c2ccccc2)nc2ccccc12 | inconclusive: 29.1 µM [cytotoxic, single point]
11 | CC1CCC2C(C)(C)C(O)CCC2(C)C12Cc1c(O)cc3c(c1O2)CN=C3N (stereo unspecified) | inactive
